Molecular target: T1, IL-21/IL-15RαSu/Fc fusion protein (human, glycosylated (CHO cell produced))
T1 construct: In the Western blot it is the reduced, SDS-denatured single chain
Assay: co-expression in CHO cells; complex purified by Protein A and size exclusion chromatography

binding result: binds
B1: IL-7/IL-15N72D fusion protein (other)
chain: DCDIEGKDGKQYESVLMVSIDQLLDSMKEIGSNCLNNEFNFFKRHICDANKEGMFLFRAARKLRQFLKMNSTGDFDLHLLKVSEGTTILLNCTGQVKGRKPAALGEAQPTKSLEENKSLKEQKKLNDLCFLKRLLQEIKTCWNKILMGTKEH[… about 120 residues …]
modifications: glycosylated (CHO cell produced)
notes: One of the two chains of hIL7/IL21/TxM; In the Western blot it is the reduced, SDS-denatured chain

— patent US20190300591A1 (ALTOR BIOSCIENCE, published 2019)
